Measured values published in US5032575A, “Method for enhancing healing of corneal endothelial wounds” (Eye Research Institute of Retina Foundation, Inc., priority 1989, dated 1991).

Experiments:
[1] = tested on: Corneal endothelial cells; assay: f-actin labelling with rhodamine labelled phallacidin in cultured corneal endothelial cells; conditions: 1 week culture; control shows circumferential bands of f-actin
Description: Widely separated cables of somewhat smaller diameter were also seen within the cytoplasm of these cells.

[2] = tested on: Corneal endothelial cells; assay: Transmission electron microscopy of pharmacologically modulated endothelial phenotypes; conditions: cultured cells

epidermal growth factor [EGF]
f-actin staining pattern [1]: actin fibers throughout the cytoplasm running roughly parallel to the long axis of the cell

CCCCC[C@H](O)/C=C/[C@H]1[C@H](O)CC(=O)[C@@H]1C/C=C\CCCC(=O)O [PGE2, prostaglandin E2]
f-actin staining pattern [1]: circumferential actin bands and discrete cytoplasmic fibers were apparent

COc1ccc2c(c1)c(CC(=O)O)c(C)n2C(=O)c1ccc(Cl)cc1 [indomethacin]
ultrastructure by transmission electron microscopy [2]: extensive cytoplasmic overlap and close ajunctional apposition of the membranes of adjacent cells
